Measured values reported in paper PMC8807876.
These are yes or no findings as the source states them, for the method shown. In cells and extracts the contact can be indirect. Some binding calls cover weakened binding; strength is not graded here. For some of these results: Where a sequence is shown, tags or fusion partners need not be part of it.

Assays:
[1] = biological target: T1, C-terminally GFP-tagged MTBP (human) (UniProt Q96DY7); experiment: co-IP; Fig S9B: 3HA-Treslin/TICRR fragments (260-671) co-transfected with C-terminally GFP-tagged MTBP into 293T; anti-GFP nanobody immunoprecipitation from cell lysates
T1 sequence: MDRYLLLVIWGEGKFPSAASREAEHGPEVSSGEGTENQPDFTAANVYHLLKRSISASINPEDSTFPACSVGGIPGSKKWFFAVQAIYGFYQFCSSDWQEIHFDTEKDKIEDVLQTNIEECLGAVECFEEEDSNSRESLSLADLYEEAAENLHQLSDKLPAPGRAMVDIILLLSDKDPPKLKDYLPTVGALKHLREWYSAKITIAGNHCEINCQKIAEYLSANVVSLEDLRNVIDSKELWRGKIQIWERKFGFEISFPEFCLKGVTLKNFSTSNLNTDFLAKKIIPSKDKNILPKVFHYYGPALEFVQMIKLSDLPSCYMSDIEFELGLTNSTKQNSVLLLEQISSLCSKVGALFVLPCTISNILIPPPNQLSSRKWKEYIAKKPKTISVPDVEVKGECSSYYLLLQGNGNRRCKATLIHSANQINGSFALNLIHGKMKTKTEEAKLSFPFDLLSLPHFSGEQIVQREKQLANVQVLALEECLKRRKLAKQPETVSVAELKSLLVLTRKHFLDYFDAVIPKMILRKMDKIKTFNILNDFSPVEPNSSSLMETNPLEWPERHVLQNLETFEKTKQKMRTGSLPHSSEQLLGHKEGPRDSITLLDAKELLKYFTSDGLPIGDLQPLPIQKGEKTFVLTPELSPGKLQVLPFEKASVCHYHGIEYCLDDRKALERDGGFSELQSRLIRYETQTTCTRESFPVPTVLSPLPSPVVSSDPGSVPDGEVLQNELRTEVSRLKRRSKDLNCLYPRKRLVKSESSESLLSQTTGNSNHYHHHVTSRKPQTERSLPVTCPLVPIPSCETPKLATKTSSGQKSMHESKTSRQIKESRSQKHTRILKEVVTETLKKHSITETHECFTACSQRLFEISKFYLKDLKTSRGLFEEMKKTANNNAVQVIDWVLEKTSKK

[2] = biological target: GFP-Flag-Treslin/TICRR-ΔM1 (human) (UniProt Q7Z2Z1); experiment: co-IP; Fig S13: GFP-Flag-Treslin/TICRR mutants transiently transfected into 293T together with MTBP; native lysates, anti-GFP nanobody IP in the presence of recombinant Cdk2-cyclin A; immunoblots for GFP, TopBP1 and MTBP
[3] = biological target: GFP-Flag-Treslin/TICRR-WT (human) (UniProt Q7Z2Z1); experiment: as above
[4] = biological target: GFP-Flag-Treslin/TICRR-ΔM2 (human) (UniProt Q7Z2Z1); experiment: as above

| Binder | binding [1] | binding [2] | binding [3] | binding [4] |
| --- | --- | --- | --- | --- |
| 3HA-Treslin/TICRR fragment 260–671, β-strand 1m (domain or fragment, UniProt Q7Z2Z1 260-671) LRSGIKLSSEPHLSPWISMLPTDATLNRLLYNSPEYEASFPRMEGMLFLPVEAGKEIQETWTVTLEPLAMHQRHFQKPVRIFLKGSVAQWSLPTSSTLGTDSWMLGSPEESTATQRLLFQQLVSRLTAEELSGELRLDPGEGRPPITGVISPLSASAMILTVCRTKEAEFQRHVLQTAVADSPRDTASLFSDVVDSILNQTHDSLADTASAASPVPEWAQQELGHTTPWSPAVVEKWFPFCNISGASSDLMESFGLLQAASANKEESSKTEGELIHCLAELYQRKSREESTIAHQEDSKKKRGVPRTPVRQKMNTMCRSLKMLNVARLNVKAQKLHPDGSPDVAGEKGIQKIPSGRTVDKLEDRGRTLRSSKPKDFKTEEELLSYIRENYQKTVATGEIMLYACARNMISTV | binds |  |  |  |
| 3HA-Treslin/TICRR fragment, amino acids 260–671 (domain or fragment, UniProt Q7Z2Z1 260-671) LRSGIKLSSEPHLSPWISMLPTDATLNRLLYNSPEYEASFPRMEGMLFLPVEAGKEIQETWTVTLEPLAMHQRHFQKPVRIFLKGSVAQWSLPTSSTLGTDSWMLGSPEESTATQRLLFQQLVSRLTAEELHLVADVDPGEGRPPITGVISPLSASAMILTVCRTKEAEFQRHVLQTAVADSPRDTASLFSDVVDSILNQTHDSLADTASAASPVPEWAQQELGHTTPWSPAVVEKWFPFCNISGASSDLMESFGLLQAASANKEESSKTEGELIHCLAELYQRKSREESTIAHQEDSKKKRGVPRTPVRQKMNTMCRSLKMLNVARLNVKAQKLHPDGSPDVAGEKGIQKIPSGRTVDKLEDRGRTLRSSKPKDFKTEEELLSYIRENYQKTVATGEIMLYACARNMISTV | binds |  |  |  |
| 3HA-Treslin/TICRR fragment 260–671, β-strand 2m (domain or fragment, UniProt Q7Z2Z1 260-671) LRSGIKLSSEPHLSPWISMLPTDATLNRLLYNSPEYEASFPRMEGMLFLPVEAGKEIQETWTVTLEPLAMHQRHFQKPVRIFLKGSVAQWSLPTSSTLGTDSWMLGSPEESTATQRLLFQQLVSRLTAEELHLVADVDPGEGRPPSGELRLPSSASAMILTVCRTKEAEFQRHVLQTAVADSPRDTASLFSDVVDSILNQTHDSLADTASAASPVPEWAQQELGHTTPWSPAVVEKWFPFCNISGASSDLMESFGLLQAASANKEESSKTEGELIHCLAELYQRKSREESTIAHQEDSKKKRGVPRTPVRQKMNTMCRSLKMLNVARLNVKAQKLHPDGSPDVAGEKGIQKIPSGRTVDKLEDRGRTLRSSKPKDFKTEEELLSYIRENYQKTVATGEIMLYACARNMISTV | binds |  |  |  |
| MTBP (co-transfected) (protein, UniProt Q96DY7 1-904) MDRYLLLVIWGEGKFPSAASREAEHGPEVSSGEGTENQPDFTAANVYHLLKRSISASINPEDSTFPACSVGGIPGSKKWFFAVQAIYGFYQFCSSDWQEIHFDTEKDKIEDVLQTNIEECLGAVECFEEEDSNSRESLSLADLYEEAAENLHQLSDKLPAPGRAMVDIILLLSDKDPPKLKDYLPTVGALKHLREWYSAKITIAGNHCEINCQKIAEYLSANVVSLEDLRNVIDSKELWRGKIQIWERKFGFEISFPEFCLKGVTLKNFSTSNLNTDFLAKKIIPSKDKNILPKVFHYYGPALEFVQMIKLSDLPSCYMSDIEFELGLTNSTKQNSVLLLEQISSLCSKVGALFVLPCTISNILIPPPNQLSSRKWKEYIAKKPKTISVPDVEVKGECSSYYLLLQGNGNRRCKATLIHSANQINGSFALNLIHGKMKTKTEEAKLSFPFDLLSLPHFSGEQIVQREKQLANVQVLALEECLKRRKLAKQPETVSVAELKSLLVLTRKHFLDYFDAVIPKMILRKMDKIKTFNILNDFSPVEPNSSSLMETNPLEWPERHVLQNLETFEKTKQKMRTGSLPHSSEQLLGHKEGPRDSITLLDAKELLKYFTSDGLPIGDLQPLPIQKGEKTFVLTPELSPGKLQVLPFEKASVCHYHGIEYCLDDRKALERDGGFSELQSRLIRYETQTTCTRESFPVPTVLSPLPSPVVSSDPGSVPDGEVLQNELRTEVSRLKRRSKDLNCLYPRKRLVKSESSESLLSQTTGNSNHYHHHVTSRKPQTERSLPVTCPLVPIPSCETPKLATKTSSGQKSMHESKTSRQIKESRSQKHTRILKEVVTETLKKHSITETHECFTACSQRLFEISKFYLKDLKTSRGLFEEMKKTANNNAVQVIDWVLEKTSKK |  | binds | binds | no binding |
| 3HA-Treslin/TICRR fragment 260–671, β-strand 3m (domain or fragment, UniProt Q7Z2Z1 260-671) LRSGIKLSSEPHLSPWISMLPTDATLNRLLYNSPEYEASFPRMEGMLFLPVEAGKEIQETWTVTLEPLAMHQRHFQKPVRIFLKGSVAQWSLPTSSTLGTDSWMLGSPEESTATQRLLFQQLVSRLTAEELHLVADVDPGEGRPPITGVISPLSALLCIKVEAFTKEAEFQRHVLQTAVADSPRDTASLFSDVVDSILNQTHDSLADTASAASPVPEWAQQELGHTTPWSPAVVEKWFPFCNISGASSDLMESFGLLQAASANKEESSKTEGELIHCLAELYQRKSREESTIAHQEDSKKKRGVPRTPVRQKMNTMCRSLKMLNVARLNVKAQKLHPDGSPDVAGEKGIQKIPSGRTVDKLEDRGRTLRSSKPKDFKTEEELLSYIRENYQKTVATGEIMLYACARNMISTV | binds |  |  |  |
